# According to PubChem BioAssay AID504845 (National Center for Advancing Translational Sciences (NCATS), 2011):
# “And” between values parts separate entries of the source, which are not always exact repeats. Equal entries are not always repeated. Hit rate of the full screen: of about 390,000 compounds, about 150 (0.038%) were called active. The inconclusive results got no clear call from the source; some entries with a clear call stand among them for comparison. Calls come from the whole dose curve; as a rule, active = well fitted inhibition curve with a large enough effect; inconclusive = small, poorly fitted or top-dose-only effect; inactive = no such curve, though single readings can be large or run the other way. Potencies of inconclusive entries are doubtful fits and often do not repeat.
# Molecular target: Regulator of G-protein signaling 4 (Homo sapiens) (UniProt P49798)
# UniProt P49798, sequence (P49798 whole entry, looked up): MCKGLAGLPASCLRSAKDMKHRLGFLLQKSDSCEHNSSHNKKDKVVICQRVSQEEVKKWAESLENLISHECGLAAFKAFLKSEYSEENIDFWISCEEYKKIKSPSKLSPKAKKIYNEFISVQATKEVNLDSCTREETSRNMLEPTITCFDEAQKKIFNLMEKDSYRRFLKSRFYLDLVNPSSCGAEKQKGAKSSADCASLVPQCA
# Experiment: Inhibitors of Regulator of G Protein Signaling (RGS) 4: qHTS; note: nearly all actives have a fitted effect of over 75% in size
# Conditions: Transcreener GDP fluorescence polarization, RGS4-accelerated GTP hydrolysis; series mostly up to 114 µM
# How it was run: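 MLSMR compounds (23 nl, pin-transferred) preincubated 10 min at room temperature with a 500nM (2x) first reagent, then RGS4 at 900nM (2x) plus Transcreener GDP mix added; fluorescence polarization (620/688 nm) read before and after 90 min at 30 °C.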
# Potency is the fitted concentration of half-maximal effect; tags give direction and shape of the fitted curve.
row,Compound,Potency
1,COCc1cc(S(=O)c2ccc(Cl)cc2)nc(C)n1 (stereo not drawn),"inconclusive: 89.1 µM [inhibitor, partial curve, poor fit]"
2,Cc1cc(C(=O)CSc2nnc(N)s2)c(C)n1-c1c(C)n(C)n(-c2ccccc2)c1=O,"inconclusive: 89.1 µM [inhibitor, single point]"
3,O=C(CN1CC(=O)Oc2ccccc21)OCC(=O)c1ccc(F)cc1,"inconclusive: 79.4 µM [inhibitor, single point]"
4,CC(C)Nc1nc2cccnc2s1,"inconclusive: 70.8 µM [inhibitor, single point]"
5,COc1cccc(Nc2nc(N)c([N+](=O)[O-])c(N3CCOCC3)n2)c1,"inconclusive: 89.1 µM [inhibitor, single point]"
6,CC1=NOC(=O)/C1=C\c1ccc(-c2ccc(Cl)cc2Cl)o1,"inconclusive: 31.6 µM [inhibitor, full curve, poor fit]"
7,COc1ccccc1CN1CCN(S(=O)(=O)c2ccccc2)CC1,inactive
8,C[N+](C)(C)CCOC(N)=O,"inconclusive: 0.336 µM [inhibitor, partial curve, poor fit]"
9,COC(=O)CCN(C)CCC(=O)OC,"inconclusive: 89.1 µM [inhibitor, single point]"
10,Cc1cccc(NC(=O)CCN2CCN(C)CC2)c1,"inconclusive: 100 µM [inhibitor, partial curve, poor fit]"
11,CC(O)[C@H]1CN=C(N)N1CC1CCCCC1 (stereo partly drawn),"inconclusive: 44.7 µM [inhibitor, partial curve, poor fit]"
12,CC(O)(c1cccs1)C(C(=O)O)c1ccccc1 (stereo not drawn),"inconclusive: 79.4 µM [inhibitor, single point]"
13,COc1ccc(C[C@@H]2CN3C(=NC[C@@H]3C)N2C[C@H](C)NC(=O)c2ccc(C)c(Br)c2)cc1,inactive
14,Cc1cc(C(=O)N/N=C/c2cccnc2)c2ccccc2n1,"inconclusive: 50.1 µM [inhibitor, single point]"
15,CCC(C(=O)OCC(=O)Nc1ccc(F)cc1)c1ccccc1 (stereo not drawn),"inconclusive: 100 µM [inhibitor, single point]"
16,Nc1ncnc2c1ncn2COC(CO)CO,inactive
17,Cc1c(Cl)cccc1NC(=S)Nn1cnnc1,"inconclusive: 50.1 µM [inhibitor, partial curve, poor fit]"
18,COc1cc2c(cc1OC)C1=C(C#N)CN(CC(=O)O)CN1CC2,"inconclusive: 89.1 µM [inhibitor, single point]"
19,CCCN1C(=O)c2ccccc2NC1c1ccc(OC)c(COc2cccc(C)c2C)c1 (stereo not drawn),inactive
20,COc1ccc(NCC(=O)Nc2ccccc2C#N)cc1Cl,"inconclusive: 89.1 µM [inhibitor, single point]"
21,COc1cc(C(C)=O)ccc1OCc1cn(CC(=O)c2ccc(O)cc2)nn1,"inconclusive: 28.2 µM [inhibitor, full curve, poor fit]"
22,O=C(CCSCc1cccc(F)c1)NCc1ccc(F)cc1,"inconclusive: 44.7 µM [inhibitor, partial curve, poor fit]"

row,Compound,Potency
1,CC1=CC(C)(C)[N+](C)(C)c2ccccc21,inactive
2,C[C@H]1CN([C@@H](C)CO)C(=O)Cc2cc(NC(=O)CCC(F)(F)F)ccc2O[C@H]1CN(C)Cc1ccc(-c2ccccc2)cc1,inactive
3,CC(=O)c1ccc(Oc2cc(C)nc(NCc3ccccc3)n2)cc1,inactive
4,COC(=O)c1ccccc1NC(=O)c1nc(S(=O)(=O)Cc2cccc(C)c2)ncc1Cl,inactive
5,COc1cc(C2CC(=O)N(Cc3ccc(F)cc3)c3ccccc3S2)cc(OC)c1OC (stereo not drawn),inactive
6,CCN1CCN(CCCNC(=O)c2ccc3c(c2)NC(=O)/C(=C\c2cccc(C)c2)S3)CC1,"inconclusive: 79.4 µM [inhibitor, partial curve, poor fit]"
7,Cc1nc2sccn2c(=O)c1CCN1CCC(=C(c2ccc(F)cc2)c2ccc(F)cc2)CC1,"inactive and inconclusive: 37.7 µM [inhibitor, single point]"
8,N/C(=N\OC(=O)COc1ccccc1)c1ccncc1,inactive
9,C=C(CN(C)C)C(=O)c1cc(C)ccc1C,"inconclusive: 31.6 µM [inhibitor, full curve, poor fit]"
10,Nc1c(N=Nc2ccccc2F)c(=O)[nH]n1-c1ccccc1,"inconclusive: 39.8 µM [inhibitor, partial curve, poor fit]"
11,CCOC(=O)C(NCc1ccccc1)(NC(=O)c1ccccc1)C(F)(F)F (stereo not drawn),"inconclusive: 89.1 µM [inhibitor, single point]"
12,COc1cc2[nH]c(=O)n(CCC(=O)NC3CCCC3)c(=O)c2cc1OC,"inconclusive: 79.4 µM [inhibitor, partial curve, poor fit]"
13,CCN(CC)Cc1ccc(NC(=O)c2sc3cc(Cl)ccc3c2Cl)cc1,inactive
14,S=C(NCCN1CCOCC1)C(=S)NCCN1CCOCC1,"inconclusive: 28.2 µM [inhibitor, full curve, poor fit]"
15,Cc1ccc(O)c(N=CC2=C(O)c3ccccc3C2=O)c1,"inconclusive: 89.1 µM [inhibitor, single point]"
16,COc1ccc2[nH]c(=S)cc(C)c2c1,"inconclusive: 31.6 µM [inhibitor, full curve, poor fit]"
17,C=C1[C@@H](O)[C@@H]2O[C@]3(CC[C@H](/C=C/[C@@H](C)[C@@H]4CC(C)=CC5(O[C@H](C[C@@](C)(O)C(=O)OC)CC[C@H]5O)O4)O3)CC[C@H]2O[C@@H]1[C@@H](O)C[C@H](C)[C@H]1OC2(CCCCO2)CC[C@H]1C (stereo partly drawn),inactive
18,CCOc1ccc(OCC(O)CN2CCc3ccccc3C2)cc1 (stereo not drawn),inactive
19,Cc1sc(NC(=O)c2ccccc2)c(C(=O)c2ccccc2)c1C,"inconclusive: 44.7 µM [inhibitor, partial curve, poor fit]"
20,CC(NC(=O)c1cc2sccc2n1C)c1ccc2c(c1)OCCO2 (stereo not drawn),inactive
21,CC(=O)N1CCc2c(sc3c2c(=O)n(Cc2ccccc2)c(=O)n3Cc2cccc(Cl)c2)C1,"inconclusive: 100 µM [inhibitor, single point]"
